Source: paper PMC4336329 (PLoS ONE, 2015)
Hit rate of the full screen: of about 310,000 compounds, about 2,200 (0.71%) showed an effect of 50% or more. The effect is printed as a negative number. The list shows a part of the results.

biological target: human ether-à-go-go-related gene (hERG) potassium channel (human, UniProt Q12809); test: primary screen, population patch clamp on CHO cells stably expressing hERG
Sequence (Q12809 whole entry, looked up): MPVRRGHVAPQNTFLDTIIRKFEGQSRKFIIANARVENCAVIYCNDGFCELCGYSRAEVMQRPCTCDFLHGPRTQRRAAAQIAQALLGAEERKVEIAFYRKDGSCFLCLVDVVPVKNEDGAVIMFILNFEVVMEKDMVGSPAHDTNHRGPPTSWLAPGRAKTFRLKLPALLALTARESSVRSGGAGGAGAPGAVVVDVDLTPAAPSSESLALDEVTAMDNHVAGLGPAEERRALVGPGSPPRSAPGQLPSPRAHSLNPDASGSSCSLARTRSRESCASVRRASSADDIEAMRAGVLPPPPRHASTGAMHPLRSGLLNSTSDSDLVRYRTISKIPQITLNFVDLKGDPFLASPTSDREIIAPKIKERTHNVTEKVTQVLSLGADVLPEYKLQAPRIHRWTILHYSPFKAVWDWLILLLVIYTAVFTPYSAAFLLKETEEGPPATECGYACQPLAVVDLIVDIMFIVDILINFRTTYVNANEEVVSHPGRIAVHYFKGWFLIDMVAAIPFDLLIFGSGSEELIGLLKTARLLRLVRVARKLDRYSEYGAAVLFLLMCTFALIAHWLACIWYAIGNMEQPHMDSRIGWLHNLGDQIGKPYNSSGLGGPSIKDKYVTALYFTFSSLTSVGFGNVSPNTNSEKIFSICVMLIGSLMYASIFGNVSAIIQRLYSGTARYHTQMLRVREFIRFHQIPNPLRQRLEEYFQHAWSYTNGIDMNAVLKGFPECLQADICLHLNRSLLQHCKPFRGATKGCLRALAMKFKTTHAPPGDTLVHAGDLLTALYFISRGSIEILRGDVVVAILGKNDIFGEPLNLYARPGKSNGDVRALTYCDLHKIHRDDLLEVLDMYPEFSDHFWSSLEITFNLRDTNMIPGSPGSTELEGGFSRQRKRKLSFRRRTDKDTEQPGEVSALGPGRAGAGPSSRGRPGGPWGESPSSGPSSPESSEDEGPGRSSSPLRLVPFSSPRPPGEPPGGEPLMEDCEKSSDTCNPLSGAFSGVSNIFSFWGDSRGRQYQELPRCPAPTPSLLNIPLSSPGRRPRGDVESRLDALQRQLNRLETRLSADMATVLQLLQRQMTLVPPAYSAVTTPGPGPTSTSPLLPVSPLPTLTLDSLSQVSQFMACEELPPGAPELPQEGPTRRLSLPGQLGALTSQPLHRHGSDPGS

| SMILES | hERG current change (%, negative = inhibition) at 1uM |
| --- | --- |
| COc1ccccc1C(=O)N1CCN(C2CCN(Cc3ccccc3)CC2)CC1 | 0.255% |
| Cc1ccc(S(=O)(=O)Oc2ccccc2/C=N/NC(=O)c2c(Cl)cnn2C)cc1 | 8.85% |
| O=C(NCc1ccccc1)/C(=C\c1ccc([N+](=O)[O-])cc1)NC(=O)c1ccco1 | -19.6% |
| COc1ccc2[nH]c(=S)cc(C)c2c1 | 17.4% |
| Clc1ccc(-c2nc(NCCN3CCOCC3)c3ccccc3n2)cc1 | -16.9% |
| CCCOc1ccc(/C=C/C(=O)Nc2ccc([N+](=O)[O-])cc2C)cc1OC | 5.35% |
| COC(=O)[C@@H]1CC[C@H](C)[C@@H](c2ccc(C)cc2)N1C(=O)c1ccc(/C=N/O[C@@H](C)c2cn([C@H](CO)Cc3ccccc3)nn2)cc1 | 6.35% |
| CCN(CC)CCN(Cc1cc2cc3c(cc2[nH]c1=O)OCO3)C(=S)NCC(C)C | -2.18% |
| O=C1NCCC/C1=N/Nc1cc(F)ccc1F | 0.298% |
| Cc1nc(SCC(=O)NC2CCCCC2C)c(C#N)c(C)c1C (stereo not drawn) | 5.68% |
| CCC1CCCCN1C(=S)NC(=O)c1cc(S(=O)(=O)N2CCOCC2)ccc1C (stereo not drawn) | 6.56% |
| Cc1ccc(S(=O)(=O)N2CCN(S(=O)(=O)N3CCCCC3)CC2)cc1 | 13.4% |
| CCOc1ccc(N(CC(=O)NC2CCCCC2)C(=O)CCC(=O)Nc2nc(C)cs2)cc1 | -20.4% |
| c1ccc(SCCc2ccncc2)cc1 | 7.49% |
| N#CC1(C#N)COC23CCCCC2C1(C#N)C(=N)O3 (stereo not drawn) | 0.171% |
| CCNC(=O)NC(=O)COc1ccccc1C#N | 17.9% |
| COc1ccc(NC(=O)c2ccc(-c3ccc([N+](=O)[O-])cc3)o2)cc1 | 2.85% |
| COc1ccc(CCNC(=O)c2cc(-c3ccccc3O)n[nH]2)cc1OC | 7.83% |
| CCOc1ccccc1NC(=O)CCn1c(=O)oc2ccccc21 | -0.089% |
| Fc1ccc(-c2nnc(SCc3ncc(-c4ccccc4)o3)n2CC2CCCO2)cc1 (stereo not drawn) | -2.66% |
| Cc1ccc(OCC(=O)N/N=C/c2ccncc2)cc1 | -7.08% |
| O=C(NC(=O)c1cc(OCC(F)(F)F)ccc1OCC(F)(F)F)Nc1ccccc1 | 12.4% |

| SMILES | hERG current change (%, negative = inhibition) at 1uM |
| --- | --- |
| COC(=O)CCCC(=O)NC1CCCN(C2Cc3ccccc3C2)C1 (stereo not drawn) | 4.05% |
| CS(=O)(=O)NCCSCc1ccc(Cl)cc1 | 8.46% |
| CCC(C)[C@H]1CNC(=S)N1CCC12CC3CC(CC(C3)C1)C2 (stereo partly drawn) | 12.1% |
| CC1Cc2ccccc2N1S(=O)(=O)c1cccc(C(=O)NCc2ccccn2)c1 (stereo not drawn) | -29.5% |
| CNC(=O)c1c(NC(=O)c2ccc(N3C(=O)CCC3=O)cc2)sc2c1CCCC2 | 11.7% |
| COc1ccc(-c2[nH]ncc2CN(C)CCCN2CCOCC2)cc1F | 12% |
| CCN(CC)C(=O)Cn1cc(C(=O)C(=O)N2CCc3ccccc32)c2ccccc21 | 4.22% |
| O=S(=O)(c1ccc2ccccc2c1)N1CCN(C(=S)Nc2ccc(F)c(Cl)c2)CC1 | 9.17% |
| COc1ccc(S(=O)(=O)N2CCN(C(=O)c3ccc4ccccc4n3)CC2)cc1 | 4.65% |
| CCN(CC(=O)Nc1cc(Cl)ccc1C)C(=O)CCc1nc2ccccc2c(=O)[nH]1 | -32.3% |
| CCc1nonc1NC(=O)c1oc2cc(Br)ccc2c1C | 11% |
| N/C(=N\OC(=O)COc1ccccc1)c1cccnc1 | 6.23% |
| O=C(Nc1nc(-c2cccs2)c(-c2cccs2)s1)C1(c2ccccc2)CC1 | 1.99% |
| O=C(Nc1cccc(C(F)(F)F)c1)C1CCN(S(=O)(=O)c2ccc(N3CCCC3=O)cc2)CC1 | 17.9% |
| COc1cc(C=O)ccc1OCCOc1ccccc1[N+](=O)[O-] | 1.46% |
| CC1(C)NC(=O)N(CCCOc2ccc(Br)cc2Cl)C1=O | 6.81% |
| COc1ccc(OC)c(C2CC(=O)Nc3cc(OC)c(OC)c(OC)c32)c1 (stereo not drawn) | 11.8% |
| COCCCn1c(=NC(C)=O)c(C#N)cc2c(=O)n3cccc(C)c3nc21 | -7.03% |
| Cc1cc(OCc2cc(C(=O)N(C)CCc3cnn(C)c3)no2)cc(C)c1Cl | 3.2% |
| CCOC(=O)C1=C(C)OC(N)=C(C#N)C1c1cccc(C)c1 (stereo not drawn) | 9.21% |
| CCOc1cc(CNCCCN2CCOCC2)cc(Br)c1OCc1ccccc1Cl.Cl | 7.29% |
| Cc1nn(C)cc1/C=N/O | -4.44% |

| SMILES | hERG current change (%, negative = inhibition) at 1uM |
| --- | --- |
| O=C(O)C(=O)O.c1ccc(COc2cccc(CN3CCc4ccccc4C3)c2)cc1 | 15.4% |
| Cc1cc(C(=O)NCc2cccnc2)cs1 | 3.2% |
| O=C(CCC(=O)N1CCCCCC1)Nc1ccc([N+](=O)[O-])cc1 | 3.73% |
| COc1cc(OC)c2ccc(=O)oc2c1C(CC(=O)N1CCCC1)c1ccc2c(c1)OCO2 (stereo not drawn) | -1.4% |
| CN(c1ccccc1)S(=O)(=O)c1cccc(NC(=O)CSc2nncn2C)c1 | 8.81% |
| COc1cc2c(cc1OC)C(c1ccc(O)cc1)NCC2 (stereo not drawn) | 18.4% |
| CCOC(=O)C(C)Sc1nc(C2CC2)cc(C(F)(F)F)c1C#N (stereo not drawn) | 7.62% |
| O=C(CN1CC(c2ccccc2)CC1=O)Nc1ccc2c(c1)OCO2 (stereo not drawn) | 4.85% |
| Cc1ccc(N2CCN(C(=O)c3nn(C)c4c3CS(=O)(=O)c3ccccc3-4)CC2)c(C)c1 | 14.9% |
| CCCCN(CCCC)C(=O)CSc1nnc(-c2cc(OC)c(OC)c(OC)c2)o1 | 4.57% |
| Cc1nc2c(-c3ccccc3)c(C)nn2c(C)c1CCC(=O)NCc1ccco1 | -20% |
| CN(C(=S)NC(=O)C1(C)CC1(Cl)Cl)c1ccccc1 (stereo not drawn) | 18.3% |
| CCOC(=O)c1ccc(NC(=O)c2nc[nH]c2C(=O)N[C@@H](Cc2ccccc2)C(=O)OC(C)(C)C)cc1 | 1% |
| COc1ccc(C(=O)OC(C(=O)c2ccc(C)cc2)c2ccccc2)cc1 (stereo not drawn) | 3.56% |
| CCN(CC)CCCNC(=O)c1ccc(CS(=O)(=O)c2ccccc2OC)o1 | 11.8% |
| COc1ccccc1NC(=O)N(CCCN1CCOCC1)Cc1cc2cc3c(cc2[nH]c1=O)OCO3 | 8.24% |
| COc1cc(/C=C/C(=O)c2ccc(NS(=O)(=O)c3ccc(C)cc3)cc2)cc(OC)c1O | 4.86% |
| Cc1ccc2c(c1)COc1c3ccc(C(=O)NC(C)C)cc3nn1-2 | 11.1% |
| O=C(Nc1ccc(Nc2ccccc2)cc1)c1cc([N+](=O)[O-])ccc1Cl | 9.98% |
| Cc1cc(NS(=O)(=O)c2ccc(NS(=O)(=O)c3cc(C)c(Cl)cc3Cl)cc2)no1 | 12.3% |
| O=C(O)C1C2C=CC3(CN(C/C=C/c4ccccc4)C(=O)C13)O2 (stereo not drawn) | 13.3% |
| Cc1nn(C)c(C)c1S(=O)(=O)NCCc1ccc(Cl)cc1 | 8.73% |

| SMILES | hERG current change (%, negative = inhibition) at 1uM |
| --- | --- |
| CC/C(=N/N=C(/CC)c1ccc(O)cc1)c1ccc(O)cc1 | 4.16% |
| CC(=O)N1CCOc2ccc(S(=O)(=O)N3CCC(C(=O)NCc4ccc(F)cc4)CC3)cc21 | 10% |
| Cc1ccc(-n2c(=O)c(C#N)cc3c(=O)n4ccccc4nc32)cc1C | 9.23% |
| CC1CCN(S(=O)(=O)c2ccc3ccccc3c2)CC1 | 23.5% |
| CC(=O)Nc1c(C(=O)c2ccc(F)cc2)oc2ccccc12 | 3.94% |
| CCCCOCCCNC(=O)N[C@H](C(=O)OC)C(C)C | 11.1% |
| CCc1ccccc1N=C1SCC(=O)N1C | 8.54% |
| COc1ccc(NC(=S)Nn2cnnc2)cc1OC | 9.82% |
| CC(Sc1ccc(S(=O)(=O)N2CCOCC2)cn1)C(=O)Nc1ccc(Cl)cc1Cl (stereo not drawn) | -29.3% |
| Cc1onc(-c2ccccc2)c1C(=O)Nc1ccnn1C1CCCCC1 | -3.97% |
| CC(=O)c1nc2ccccc2n1Cc1ccccc1 | 9.31% |
| CC(=O)Oc1ccc(/C=C2/CCc3ccccc3C2=O)cc1 | 11.9% |
| CCC(=O)Nc1cccc(C2=NOC3(C2)C[C@@H](C(N)=O)N(C(=O)CC)C3)c1 (stereo partly drawn) | 13% |
| O=C(CSc1nnnn1-c1ccccc1)Nc1ccc(N2CCOCC2)cc1 | -3.69% |
| Cc1cc(=O)n2nc(N3CCCC(C(=O)N4CCN(c5ccccc5)CC4)C3)sc2n1 (stereo not drawn) | -21.7% |
| CCCCC12CN3CC(C)(CN(C1)C31C(=O)N(C)c3ccc(C)cc31)C2=O (stereo not drawn) | -5.21% |
| COc1ccccc1N1CCN(S(=O)(=O)c2ccc(-c3cnc(C4CC4)o3)cc2)CC1 | 14% |
| O=C(NCCN1CCOCC1)N1c2ccccc2Sc2ccccc21 | 13.7% |
| CCOc1cccc(C(=O)Nc2cccc(NC(=O)c3ccco3)c2)c1 | 0.329% |
| Cl.c1coc(CNc2nc(N3CCCCC3)nc3ccccc23)c1 | -80.8% |
| COc1nc(-c2ccccc2)ccc1-c1noc(-c2cccnc2)n1 | 10.7% |
